Source: PubChem BioAssay AID1508623 (National Center for Advancing Translational Sciences (NCATS), 2021)
Among all 48,000 compounds or so, about 450 (0.94%) were called active. About 19% were inconclusive and are not listed. Calls come from the whole dose curve; as a rule, active = well fitted inhibition curve with a large enough effect; inconclusive = small, poorly fitted or top-dose-only effect; inactive = no such curve, though single readings can be large or run the other way. The list shows a part of the results.

experiment: Primary qHTS for Identification of Small Molecule Inhibitors of Huntingtin Promoter Activity; settings: HEK293 HTT promoter firefly luciferase reporter (activity 0% = vehicle and -100% = no light), 24 h; series mostly up to 57.5 µM; activity change, negative = inhibition: at the top concentration; note: nearly all actives have a fitted effect of over 50% in size
In short: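 Firefly luciferase signal from promoter-reporter HEK293 cells was scaled between vehicle (0%) and zero RLU (-100%). Compounds were tested at final concentrations of up to 57.5 uM over 24 h at 37 degrees C. PTC124 at 50 uM final served as control inhibitor.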

Activity change, negative = inhibition, inactive:
Cc1cc(C)c(NC(=O)CSc2nc3ccccc3nc2N2CCCCC2)c(C)c1 -11.5%
CCC(C(=O)Nc1cccc(Cl)c1C)n1nc(-c2ccc(C)cc2)ccc1=O (stereo not given) -29.6%
CC(C)COc1cccc(C(=O)Nc2ccc(-c3nc4ncccc4o3)cc2)c1 -13.3% [at 11.5 µM]
CCCc1nc2sc3c(N4CCC(C)CC4)ncnc3c2c2c1CCCC2 -5.49%
O=C(NCc1cccc(Cl)c1)c1cc2ccc3cccnc3c2[nH]1 13.3%
CC(C)COc1ccc(C(=O)Nc2ccc(S(=O)(=O)Nc3ncccn3)cc2)cc1 -9.44%
CCC(=O)Nc1cc(C)c(O)c(-c2nc3ncccc3o2)c1 -3.16%
CC1CCN(C(=O)Cn2cc(SCC(=O)NCc3ccccc3Cl)c3ccccc32)CC1 -30.6%
Cc1cccc(N2CCN(S(=O)(=O)c3ccc4c(c3)CCCN4C(=O)C3CCC3)CC2C)c1 (stereo not given) -22.9%
COc1ccc(Cn2c(=O)[nH]c3cc(C(=O)N4CCN(c5cccc(Cl)c5)CC4)ccc3c2=O)cc1 -11.1%
Cn1c(=O)n(-c2ccc(Br)cc2F)c(=O)c2sc3ccccc3c21 -9.34%
COc1cc2c(=O)c(S(=O)(=O)c3ccc(F)cc3)cn(Cc3ccc(Cl)cc3)c2cc1OC -7.34%
O=C(NC1CCCCCC1)c1ccc2c(c1)sc1nc(-c3ccc(F)cc3)cn12 -0.069%
O=C(Nc1ccc(C(=O)OCc2cc(=O)n3c4c(sc3n2)CCCC4)cc1)c1ccccc1 -9.78%
CC1(C)O[C@@H]2C[C@H]3[C@@H]4CCC5=CC(=O)CC[C@]5(C)[C@@]4(F)[C@@H](O)C[C@]3(C)[C@]2(C(=O)CCl)O1 -4.28%
COc1ccc(C2C(C(N)=O)=C(C)Nc3nc(CCCO)nn32)c(OC)c1 (stereo not given) -5.01%
COc1ccc(CCNC(=O)c2cnc3ccc(C)cn3c2=O)cc1 -2.15%
CCCS(=O)(=O)c1c(S(=O)(=O)CCC)c2cc(CC)ccn2c1C(=O)c1ccc(OC)cc1 -17.6%
COc1cccc(Cn2nnc(C(=O)Nc3cc(C)ccc3C)c2N)c1 -25.9%
CCOc1ccc(NC(=O)N2CCC(C(N)=O)(N3CCCCC3)CC2)cc1 -7.76%
O=C(NC1CC(=O)N(c2cccc(F)c2)C1)c1ccc(S(=O)(=O)N2CCCC2)cc1 (stereo not given) -18%
O=C(Cn1c(=O)n(Cc2ccccc2)c(=O)c2sc3ccccc3c21)NCc1ccccc1Cl -15.3%
O=C(CCc1nc(-c2cccs2)no1)Nc1ccccc1[N+](=O)[O-] 0.523%
Cc1ccn2c(=O)c(C(=O)NCCc3ccccc3)c(O)nc2c1 0.417%
Cc1ccc2nc(NC(=O)CSc3nccn3Cc3ccc(Cl)cc3)sc2c1 -26.6%
O=C(Nc1cccc(Cl)c1)N1CCSc2ccccc21 -4.81%
CCN(CC)c1cc(C)c2cc(NC(=O)c3cccc(F)c3)ccc2n1 -3.63%
CCOC(=O)c1cnc2c(ccc3ccccc32)c1Nc1ccccc1OCC 0.116%
COCCCNC(=O)CS(=O)Cc1nc(-c2cccc(C)c2)oc1C (stereo not given) 2.54%
CC(NC(=O)CCCC1=NS(=O)(=O)c2ccccc2N1)c1ccccc1 (stereo not given) -1.52%
CCCn1cc(S(=O)(=O)c2ccccc2)c(=O)c2cc(F)c(N3CCCCC3)cc21 -9.22%
Cc1ccc(NC(=O)C2CCN(c3nc4ccccc4nc3C(F)(F)F)CC2)cc1F -9%
CCC(C)n1c(=N)c(C(=O)NCc2ccccc2)cc2c(=O)n3cc(C)ccc3nc21 (stereo not given) -2.44%
COc1ccc(C(=O)Nc2nnc(S(=O)(=O)N3CCCCCC3)s2)cc1OC -18.3%
Cc1ccc(CNC(=O)CCc2c(C)nc3c(c(C)nn3-c3ccccc3)c2C)cc1 1.17%
CCN(CC)C(=O)/C(C#N)=C/c1cc(O)c(O)c([N+](=O)[O-])c1 -3.05%
COc1ccc(C(=O)c2oc3ccccc3c2NC(=O)COc2ccccc2)cc1 4.93%
COc1ccc(CCNC(=O)c2sc3nc4n(c(=O)c3c2C)CCCC4)cc1OC 19.6%
CCc1cccc(C)c1NC(=O)CC1Oc2ccc(C)cc2NC1=O (stereo not given) -6.62%
O=C(COc1ccc(Cl)cc1)OCc1cc(=O)n2nc(-c3cccs3)sc2n1 -1.8%
CC(C)n1c(=N)c(C(=O)NCc2cccnc2)cc2c(=O)n3ccccc3nc21 -12.8%
CNC(=O)C1CCC(Cn2c(=O)c3sccc3n(CC(=O)NCc3cccc(OC)c3)c2=O)CC1 (stereo not given) -14.3%
Cc1cc(C)cc(Nc2cc(C)nc3nncn23)c1 10.5%
Cc1cccc(-c2nc3scc(CCNC(=O)c4ccc(Br)o4)n3n2)c1 -18.2%
CCC(CC)C(=O)Nc1ccc(-c2cn3cccnc3n2)cc1 38.7%
Nc1nc2c(c(=O)[nH]1)N(C=O)[C@H](CNc1ccc(C(=O)N[C@@H](CCC(=O)O)C(=O)O)cc1)CN2 6.62%
COc1ccc(CNC(=O)CN2C(=O)COc3ccc(S(=O)(=O)NC4CCCC4)cc32)cc1 -7.79%
COc1ccc(/C=C\c2onc(C)c2S(=O)(=O)N2CCC(C(=O)Nc3cccc(Cl)c3)CC2)cc1 -20.4%
Cc1ccc(Nc2nnc(-c3cc4c(ccc5ccccc54)oc3=O)s2)cc1 -3.69%
COc1cccc(C(=O)N2CCc3c([nH]c4ccccc34)C2c2ccc(SC)cc2)c1 (stereo not given) -21.2%
COc1cccc(CNC(=O)CCCN2C(=O)CCn3nc(-c4cccn4C)cc32)c1 18%
CCOC(=O)c1cccc(NC(=O)Cn2c(=O)nc(-c3ccccc3F)c3cc(Cl)ccc32)c1 -20.4%
CCn1c(=O)c2cc(C(=O)N(CC(C)C)CC(C)C)sc2c2ccccc21 -11%
CCOc1ccc(CCNC(=O)c2csc3c2CCCCC3)cc1 -12.3%
CCN(C(=O)CSc1nc2ccccc2n1CC(=O)NCc1ccc(OC)cc1)c1ccccc1 -15.7%
Cc1ccc2nc(CSc3nnc(NC(=O)c4cccc(Br)c4)s3)cc(=O)n2c1 31.1%
COc1ccc(-c2c(C)nn3c(N4CCN(c5ccccc5)CC4)cc(C)nc23)cc1OC -5.05%
COc1ccc(NC(=O)CC2C(=O)N(c3ccc(F)cc3)C(=O)N2Cc2ccc3c(c2)OCO3)cc1 (stereo not given) -21.3%
C[C@@H](O)[C@H]1C(=O)N2C(C(=O)O)=C(S[C@@H]3CN[C@H](C(=O)N(C)C)C3)[C@H](C)[C@H]12
CCCn1c(=N)c(C(=O)NC2CCCC2)cc2c(=O)n3cccc(C)c3nc21 -6.59%
